What was measured:
hGR [1] = target: T1, hGR (Homo sapiens, UniProt P04150); assay: In vitro transactivation assay (agonism), HMLN-hGR reporter cells; settings: HMLN-hGR; % of maximal luciferase activity induced by 100 nM dexamethasone; at 10^-5M (10^-6M for bimedrazole, cortivazol, dexamethasone)
T1 sequence (P04150 1-777): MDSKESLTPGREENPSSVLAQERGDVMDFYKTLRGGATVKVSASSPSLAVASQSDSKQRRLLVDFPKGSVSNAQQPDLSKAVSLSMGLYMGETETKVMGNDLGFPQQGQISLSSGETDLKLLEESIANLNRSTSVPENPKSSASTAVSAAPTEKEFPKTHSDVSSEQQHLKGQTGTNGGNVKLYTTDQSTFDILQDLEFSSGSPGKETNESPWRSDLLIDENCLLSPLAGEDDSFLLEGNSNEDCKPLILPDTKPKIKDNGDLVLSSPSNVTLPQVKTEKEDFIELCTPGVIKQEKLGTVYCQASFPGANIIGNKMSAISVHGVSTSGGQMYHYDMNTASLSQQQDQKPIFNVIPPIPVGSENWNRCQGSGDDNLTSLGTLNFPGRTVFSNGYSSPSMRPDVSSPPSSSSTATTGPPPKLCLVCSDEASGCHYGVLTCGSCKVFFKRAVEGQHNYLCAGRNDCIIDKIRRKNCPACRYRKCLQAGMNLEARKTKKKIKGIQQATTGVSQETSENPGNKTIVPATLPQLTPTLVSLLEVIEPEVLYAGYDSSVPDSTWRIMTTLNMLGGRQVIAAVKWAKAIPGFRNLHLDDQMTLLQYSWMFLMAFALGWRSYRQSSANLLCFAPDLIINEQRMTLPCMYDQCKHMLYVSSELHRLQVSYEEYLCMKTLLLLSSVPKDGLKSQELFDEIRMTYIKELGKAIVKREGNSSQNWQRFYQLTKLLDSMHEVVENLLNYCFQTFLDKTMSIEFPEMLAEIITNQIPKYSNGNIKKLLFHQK

zfGR = zfGR (Danio rerio, UniProt Q1XHK0); assay: In vitro transactivation assay (agonism), UMLN-zfGR reporter cells
hGR [2] = target: T1, hGR; settings: HMLN-hGR; with 3 nM dexamethasone; % of maximal luciferase activity induced by 100 nM dexamethasone; at 10^-5M
hGR [3] = target: T1, hGR; assay: cell-based

Structure (SMILES) | % max act (maximal activity) (hGR [1]) [%] | EC50 (zfGR) [nM] | REP (relative potency) (zfGR; UMLN-zfGR, ratio of EC50 values, DEX set at 1) | % min act (minimal activity) (hGR [2]) [%] | IC50 (hGR [3]) [nM]
C[C@@H]1C[C@H]2[C@@H]3CCC4=CC(=O)C=C[C@]4(C)[C@@]3(F)[C@@H](O)C[C@]2(C)[C@@]1(O)C(=O)CO [dexamethasone] | 100 ± 0 |  |  |  | 
C[C@H]1C[C@@H]2[C@H]([C@@H](O)C[C@@]3(C)[C@H]2CC[C@]3(O)C(=O)CO)[C@@]2(C)C=CC(=O)C=C12 [medrol] | 119 ± 5 | 12 |  |  | 
CCC(=O)O[C@]1(C(=O)SCF)[C@H](C)C[C@H]2[C@@H]3C[C@H](F)C4=CC(=O)C=C[C@]4(C)[C@@]3(F)[C@@H](O)C[C@@]21C [fluticasone proprionate, fluticasone propionate] | 119 ± 9 | 0.23 |  |  | 
CC(=O)OCC(=O)[C@@]1(O)[C@H](C)C[C@H]2[C@@H]3C=C(C)C4=Cc5c(cnn5-c5ccccc5)C[C@]4(C)[C@H]3[C@@H](O)C[C@@]21C [cortivazol] |  | 0.38 | 5.2 |  | 
CCC(=O)[C@@]1(C)CC[C@H]2[C@@H]3CCC4=CC(=O)CCC4=C3CC[C@@]21C [promegestone] |  |  |  | 3 ± 1 | 772
